Test results published in article PMC4336329 (PLoS ONE, 2015).
In all, about 310,000 compounds went through this assay and about 2,200 (0.71%) showed an effect of 50% or more. Effects have a minus sign here. The list shows a part of the results.

The molecules below were run against human ether-à-go-go-related gene (hERG) potassium channel (human, UniProt Q12809) (assay: primary screen, population patch clamp on CHO cells stably expressing hERG).
Sequence of human ether-à-go-go-related gene (hERG) potassium channel (Q12809 whole entry, looked up): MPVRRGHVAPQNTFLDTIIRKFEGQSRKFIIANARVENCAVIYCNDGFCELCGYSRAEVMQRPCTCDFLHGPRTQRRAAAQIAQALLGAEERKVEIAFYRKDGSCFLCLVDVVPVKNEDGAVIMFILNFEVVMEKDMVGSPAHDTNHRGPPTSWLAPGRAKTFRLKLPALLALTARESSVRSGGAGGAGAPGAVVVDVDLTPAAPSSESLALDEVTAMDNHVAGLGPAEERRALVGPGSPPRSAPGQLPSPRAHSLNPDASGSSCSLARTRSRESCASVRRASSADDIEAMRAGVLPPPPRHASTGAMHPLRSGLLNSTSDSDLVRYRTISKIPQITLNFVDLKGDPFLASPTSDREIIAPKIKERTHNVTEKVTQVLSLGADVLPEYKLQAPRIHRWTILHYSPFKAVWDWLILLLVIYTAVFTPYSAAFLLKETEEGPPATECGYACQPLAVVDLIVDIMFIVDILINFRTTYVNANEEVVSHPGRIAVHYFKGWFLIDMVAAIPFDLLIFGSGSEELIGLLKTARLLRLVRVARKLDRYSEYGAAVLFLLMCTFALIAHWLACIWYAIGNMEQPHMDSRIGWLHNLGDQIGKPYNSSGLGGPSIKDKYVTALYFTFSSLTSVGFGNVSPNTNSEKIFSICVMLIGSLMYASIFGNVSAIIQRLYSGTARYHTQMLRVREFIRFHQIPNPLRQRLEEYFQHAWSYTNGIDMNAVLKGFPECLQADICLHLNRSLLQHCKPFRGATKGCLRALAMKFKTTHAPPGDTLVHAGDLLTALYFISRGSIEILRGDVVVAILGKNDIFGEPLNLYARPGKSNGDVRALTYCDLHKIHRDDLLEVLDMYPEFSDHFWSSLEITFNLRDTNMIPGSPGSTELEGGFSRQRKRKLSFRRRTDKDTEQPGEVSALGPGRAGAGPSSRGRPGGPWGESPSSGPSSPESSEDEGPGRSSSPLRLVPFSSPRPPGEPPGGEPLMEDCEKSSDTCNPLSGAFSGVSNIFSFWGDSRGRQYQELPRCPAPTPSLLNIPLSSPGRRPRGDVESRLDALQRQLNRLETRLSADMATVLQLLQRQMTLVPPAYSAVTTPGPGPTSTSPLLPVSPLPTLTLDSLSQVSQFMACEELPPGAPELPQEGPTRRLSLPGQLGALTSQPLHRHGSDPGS

SMILES	hERG current change (%, negative = inhibition) at 1uM [%]
O=C(Oc1ccccc1C(=O)Oc1ccccc1)c1ccco1	14.2
CCC(=O)Nc1ccc(C(=O)NNC(=O)COc2cc(C)ccc2C)cc1	17.6
COC(=O)c1ccc(C2C(Oc3ccccc3)C(=O)N2CCc2ccc(F)cc2)cc1 (stereo not drawn)	10.7
Cc1ccc(S(=O)(=O)C2(C(=O)Nc3ccc(C(C)C)cc3)CC2)cc1	13.7
CCSc1nnc(NC(=O)[C@@H](NC(=O)c2ccccc2F)C(C)C)s1	4.72
Cc1ccc(-n2c(C)cc3c2CC(C)(C)CC3=O)cc1C	11.4
CC(=O)c1ccc(OCc2cc(C(=O)NC3CCCCC3)no2)cc1	0.394
O=C(NCCc1ccc(Cl)cc1)/C(=C/c1cccnc1)NC(=O)c1ccccc1	-53.8
Cc1cc(C)n2nc(SCc3ccccc3)nc2n1	5.58
CC(=O)c1ccc(NC(=O)/C(=C\c2ccccc2)NC(=O)/C=C/c2ccccc2)cc1	1.35
Cc1cc(NC(=O)c2ccccc2-c2ccccc2)ccc1Br	3.66
Cc1nn(CC(=O)O)c(=O)c2ccccc12	2.93
O=C1CCCN2N=C(SCC(=O)Nc3ccc(F)cc3F)SC2=N1	5.43
CC(=O)n1nc(-c2ccco2)nc1N	10.2
COc1cc(S(=O)(=O)N2CCCN(C)CC2)ccc1NC(C)=O	16
COc1ccc(/C=C2\SC(=S)N(CCCC(=O)Nc3ccc(C(=O)O)cc3)C2=O)cc1OC	-6.82
O=C1COc2ccc(C(=O)COC(=O)c3ccccc3[N+](=O)[O-])cc2N1	-1.13
Fc1ccccc1Cc1nnc2n1N=C(c1ccc(Cl)cc1)CS2	-8.16
O=C(Oc1oc(-c2ccco2)nc1C=Nc1ccc(Cl)cc1)c1ccco1	8.3
COc1cc(OC)cc(C(=O)N(Cc2cc3cc(C)ccc3[nH]c2=O)C(C)C)c1	2.31
C/C(=N\OCC(=O)Nc1ccccc1C(=O)O)c1cccs1	15.4
CC(=O)C1=C(O)CC(c2ccccc2)CC1=NCCc1ccccc1 (stereo not drawn)	1.54
COc1ccc(/C=N/NC(=O)c2ccc(COc3cccc4cccnc34)cc2)cc1OC	2.59
COc1cc(C(O)P(=O)(OC(C)C)OC(C)C)cc(OC)c1OC (stereo not drawn)	-7.22
